Key:
human APOE4 [1] = target: T1, human APOE4 (human, UniProt P02649); experiment: Bio-layer interferometry (Octet); LILRB4-Fc on Protein A biosensors, APOE 44-1176 nM
Procedure: (§1) FIGS. 39a-39g—Three APOE isoforms bind to human LILRB4. FIG. 39a-c: Binding kinetics of APOE 2, 3, and 4 to LILRB4-Fc were measured using surface plasmon resonance (SPR). LILRB4-Fc was immobilized on Protein A biosensor tips and incubated with APOE concentrations ranging from 1.5625 nM to 100 nM. […] (FIGS. 39d-f) Binding kinetics of APOE 2, 3, and 4 to LILRB4-Fc were measured using Bio-layer Interferometry (Octet). LILRB4-Fc was immobilized on Protein A biosensor tips and incubated with APOE concentrations ranging from 44 nM to 1176 nM. […] (FIG. 39g) Binding kinetics of APOE 3 to His-LILRB4 was measured using microscale thermophoresis (MST).
(§2) Analyses of the binding interactions between LILRB4-Fc with APOE2, APOE3, and APOE4 were performed using the Octet RED96 (ForteBio, Pall Corporation). All assays were performed with the protein A dip-and-read biosensors (ForteBio) to capture LILRB4-Fc in a kinetics assay buffer (Fortebio), both association (300 s) and dissociation (600 s) of APOEs were monitored. Background wavelength shifts were measured from reference sensors with loading of LILRB4-Fc only and buffer.

human APOE2 [2] = target: T2, human APOE2 (human, UniProt P02649); experiment: as above
Procedure: as §1, §2

human APOE3 [3] = target: T3, human APOE3 (human, UniProt P02649); experiment: as above
T3 construct: In MST the protein was unlabeled His-APOE (# CI06, Novoprotein)
Procedure: as §1, §2

human APOE4 [4] = target: T1, human APOE4; experiment: SPR; LILRB4-Fc captured on Protein A, APOE 1.5625-100 nM
Procedure: as §1

human APOE2 [5] = target: T2, human APOE2; experiment: as above
Procedure: as §1

human APOE3 [6] = target: T3, human APOE3; experiment: as above
Procedure: as §1

B1: LILRB4-ECD-Fc (Fc fusion)
chain: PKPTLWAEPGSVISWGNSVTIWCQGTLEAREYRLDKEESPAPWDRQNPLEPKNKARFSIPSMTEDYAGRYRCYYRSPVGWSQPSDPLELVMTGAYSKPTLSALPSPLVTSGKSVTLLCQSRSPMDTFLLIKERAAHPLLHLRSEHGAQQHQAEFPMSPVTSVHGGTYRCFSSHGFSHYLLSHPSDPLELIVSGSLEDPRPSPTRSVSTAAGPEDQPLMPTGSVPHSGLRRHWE
notes: also called LILRB4-Fc; LILRB4 ECD-Fc fusion protein; not shown: Fc part
Binder B1 has a Kd (human APOE4 [1]) of 48.4 nM, a Kd (human APOE2 [2]) of 60.7 nM and a Kd (human APOE3 [3]) of 61.7 nM. It also gave a Kd (human APOE4 [4]) of 3.57 nM, a Kd (human APOE2 [5]) of 5.53 nM and a Kd (human APOE3 [6]) of 2.48 nM.
